According to the supplement of paper PMC4604168 (melanoma cell lines):
The other results are listed elsewhere or left out. Many values rest on one well or one pass, so single values are uncertain.

What was measured:
Assay in all cases: cell count relative to DMSO control; melanoma cells; higher = more viable cells
Settings in all cases: library dose: low library concentration; 72 h
MZ2-MEL = tested on: MZ2-MEL
MeWo = tested on: MeWo
RPMI7951 = tested on: RPMI7951
RVH-421 = tested on: RVH-421
SkMel28 = tested on: SkMel28
SkMel2 = tested on: SkMel2
SkMel30 = tested on: SkMel30
SkMel5 = tested on: SkMel5
UACC257 = tested on: UACC257
UACC62 = tested on: UACC62
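Also: cell number obtained by counting DAPI-stained nuclei in high-throughput microscope images with image analysis software, screen run in 1,536-well plates.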

| Structure (SMILES) | cell count (MZ2-MEL) [%] | cell count (MeWo) [%] | cell count (RPMI7951) [%] | cell count (RVH-421) [%] | cell count (SkMel28) [%] | cell count (SkMel2) [%] | cell count (SkMel30) [%] | cell count (SkMel5) [%] | cell count (UACC257) [%] | cell count (UACC62) [%] |
| --- | --- | --- | --- | --- | --- | --- | --- | --- | --- | --- |
| Cc1cc(Nc2cc(N3CCN(C)CC3)nc(Sc3ccc(NC(=O)C4CC4)cc3)n2)n[nH]1 [Tozasertib] + CCCCCCCCCCCC1=C(O)C(=O)C=C(O)C1=O [Embelin] (first compound 0.006 µM, partner dose 1.2 µM) | 99.1 | 106 | 98.9 | 97.8 | 93.4 | 96.2 | 114 | 96.4 | 74.1 | 90.6 |
| Cc1cc(Nc2cc(N3CCN(C)CC3)nc(Sc3ccc(NC(=O)C4CC4)cc3)n2)n[nH]1 [Tozasertib] + OCCn1cc(-c2cnc3nnn(Cc4ccc5ncccc5c4)c3n2)cn1 [PF04217903] (first compound 0.006 µM, partner dose 1 µM) | 101 | 94 | 103 | 94.6 | 99.1 | 93.5 | 90.1 | 91.7 | 89 | 106 |
| CC[C@]1(O)C[C@H]2CN(CCc3c([nH]c4ccccc34)[C@@](C(=O)OC)(c3cc4c(cc3OC)N(C=O)[C@H]3[C@@](O)(C(=O)OC)[C@H](OC(C)=O)[C@]5(CC)C=CCN6CC[C@]43[C@@H]65)C2)C1 [vincristine] + OCCn1cc(-c2cnc3nnn(Cc4ccc5ncccc5c4)c3n2)cn1 [PF04217903] (first compound 0.0001 µM, partner dose 1 µM) | 95.1 | 96.2 | 82.5 | 81.8 | 92.7 | 89.3 | 81.3 | 85.3 | 59 | 83.7 |
| Cc1cc(Nc2cc(N3CCN(C)CC3)nc(Sc3ccc(NC(=O)C4CC4)cc3)n2)n[nH]1 [Tozasertib] + C=CCn1c(=O)c2cnc(Nc3ccc(N4CCN(C)CC4)cc3)nc2n1-c1cccc(C(C)(C)O)n1 [MK1775] (first compound 0.006 µM, partner dose 0.02 µM) | 104 | 89.4 | 101 | 75.3 | 81.6 | 95.1 | 116 | 80.4 | 82.5 | 82.4 |
| Cc1cc(Nc2cc(N3CCN(C)CC3)nc(Sc3ccc(NC(=O)C4CC4)cc3)n2)n[nH]1 [Tozasertib] + O=S(=O)(c1ccccc1)N(CC(F)(F)F)c1ccc(C(O)(C(F)(F)F)C(F)(F)F)cc1 [T0901317] (first compound 0.006 µM, partner dose 1.4 µM) | 95.8 | 91.6 | 87.5 | 94 | 83.8 | 95.5 | 86.4 | 87 | 82 | 76.1 |
| N#CC[C@H](C1CCCC1)n1cc(-c2ncnc3[nH]ccc23)cn1 [ruxolitinib] + O=C(Nc1cccc(Cl)c1)Nc1ncc(CCNc2ncnc3ccsc23)s1 [SNS314] (first compound 1 µM, partner dose 0.0008 µM) | 107 | 83.9 | 94.1 | 92.9 | 117 | 102 | 117 | 107 | 82.5 | 112 |
| Cc1cc(Nc2cc(N3CCN(C)CC3)nc(Sc3ccc(NC(=O)C4CC4)cc3)n2)n[nH]1 [Tozasertib] + COc1cc(N2CCC(N3CCN(C)CC3)CC2)ccc1Nc1ncc(Cl)c(Nc2ccccc2S(=O)(=O)C(C)C)n1 [NVP-TAE684] (first compound 0.006 µM, partner dose 0.08 µM) | 96.8 | 87.7 | 89.4 | 104 | 86.1 | 101 | 83.1 | 97.2 | 67.9 | 87 |
| N#CC[C@H](C1CCCC1)n1cc(-c2ncnc3[nH]ccc23)cn1 [ruxolitinib] + O=C(O)C(=O)Nc1sc2c(c1C(=O)O)CCNC2 [TCS401] (first compound 1 µM, partner dose 1.66667 µM) | 98.6 | 86.6 | 116 | 104 | 98.2 | 90.8 | 76.2 | 90.2 | 76.8 | 100 |
| CC[C@]1(O)C[C@H]2CN(CCc3c([nH]c4ccccc34)[C@@](C(=O)OC)(c3cc4c(cc3OC)N(C=O)[C@H]3[C@@](O)(C(=O)OC)[C@H](OC(C)=O)[C@]5(CC)C=CCN6CC[C@]43[C@@H]65)C2)C1 [vincristine] + NC(=O)Nc1cc(-c2cccc(F)c2)sc1C(=O)N[C@H]1CCCNC1 [AZD7762] (first compound 0.0001 µM, partner dose 0.02 µM) | 106 | 99.2 | 63.2 | 98.8 | 69.5 | 103 | 56.2 | 113 | 52.6 | 58.5 |
